{
  "source": "PubChem BioAssay AID435005",
  "about": "(Broad Institute, 2010)",
  "note": "The campaign covered roughly 300,000 compounds. About 2,400 (0.8%) were called active. Inconclusive means that the source gave no clear call. Such entries were picked first, then a sample of the others.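 How the source made its calls: active means Every replicate reaches about 75%, or at least half do and their mean reaches it too (limit read from the data); inconclusive means At least half of replicates reach the limit but their mean does not; inactive means Under half of replicates reach the limit.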",
  "data": [
    {"assay": "inhibitors of cytokine-induced beta cell apoptosis, primary screen, luminescence (AID 435005);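 further: 0% = cytokine-treated negative control wells and 100% = positive control rescue; higher means more ATP so stronger rescue from cytokine killing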", "settings": "INS-1E cytokine-induced death, ATP luminescence, 48 h; active compounds read high; percent of positive-control rescue, neutral wells zero; concentration not given here", "values": [
      {"smiles": "CCOC(=O)C1(Cc2cccc(Cl)c2)CCCN(C(=O)c2ccc(COC)s2)C1", "note": "(stereo not given)", "protection from apoptosis": "inconclusive: 46.6%"},
      {"smiles": "CN(C)C1=NC[C@H](Cc2ccccc2)N1CCCC1CCCC1", "protection from apoptosis": "inactive: 39.5%"},
      {"smiles": "CC1=C/C(=N\\OS(=O)(=O)c2ccccc2)C(C)=CC1=O", "protection from apoptosis": "active: 112%"},
      {"smiles": "O=C1C=C(N2CCCCC2)c2ccccc2C1=O", "protection from apoptosis": "active: 117%"},
      {"smiles": "Oc1ccc(COCc2ccccc2)c2cccnc12", "protection from apoptosis": "active: 99.3%"},
      {"smiles": "CCCC1CCC(c2ccc(C(=O)NN)cc2)CC1", "note": "(stereo not given)", "protection from apoptosis": "inconclusive: 69.4%"},
      {"smiles": "CCN(CC)C(=S)SSC(=S)N(CC)CC", "protection from apoptosis": "inconclusive: 47.3%"},
      {"smiles": "Cc1ccc(C#CC[N+]2(CC#Cc3ccc(C)cc3)CCCCC2)cc1", "protection from apoptosis": "active: 113%"},
      {"smiles": "Cc1ccc(N=Cc2c(O)n(-c3ccc4c(c3)OCO4)c(=O)c3ccccc23)cc1", "protection from apoptosis": "inactive: 58.6%"},
      {"smiles": "Cc1cc(/C=N/n2cnnc2)c(C)n1-c1ccc(OCc2ccc(Cl)cc2Cl)cc1", "protection from apoptosis": "active: 113%"},
      {"smiles": "COc1ccccc1/C=N/OCc1cc(C(C)=O)ccc1OC", "protection from apoptosis": "inconclusive: 37.9%"},
      {"smiles": "CN(C)/C=C1/NC(=S)NC1=O", "protection from apoptosis": "inactive: 2.61%"},
      {"smiles": "CC(C)(C)[C@@H]1CCC(=O)N(CC[C@H](Sc2ccccc2)c2ccccc2)CC1", "protection from apoptosis": "inactive: 25%"},
      {"smiles": "Cc1[nH]c2c(ccc3ccccc32)c1C1C(CCN)C1(C)C", "note": "(stereo not given)", "protection from apoptosis": "inconclusive: 68.6%"},
      {"smiles": "CC(=O)c1ccc(OCc2cc(C(=O)N3CCCCC3c3cccnc3)no2)cc1", "note": "(stereo not given)", "protection from apoptosis": "inconclusive: 60.1%"},
      {"smiles": "COc1ncnc(OC)c1S(=O)(=O)Nc1ccc(C(F)(F)F)cc1", "protection from apoptosis": "inconclusive: 70.2%"},
      {"smiles": "COc1ccccc1NC(=O)c1cc2cc(Br)ccc2cc1O", "protection from apoptosis": "inconclusive: 68.8%"},
      {"smiles": "CCN(C(=O)CN1CCOCC1)C1(C)C(=O)c2ccccc2C1=O", "protection from apoptosis": "inactive: 6.16%"},
      {"smiles": "C[C@@H]1CN([C@H](C)CO)C(=O)c2cc(NC(=O)Nc3ccc(C(F)(F)F)cc3)ccc2O[C@H]1CN(C)S(=O)(=O)c1cccs1", "protection from apoptosis": "inconclusive: 40.4%"},
      {"smiles": "CN(Cc1ccccc1)C(=O)c1nc2ccccn2c1CN1CCCC1c1nccs1", "note": "(stereo not given)", "protection from apoptosis": "inconclusive: 62%"},
      {"smiles": "O=C(/C=C/c1cccs1)NCc1cccs1", "protection from apoptosis": "inactive: 2.11%"},
      {"smiles": "CCOc1ccc(-n2c(=O)[nH]cc(C(=O)Nc3ccc(OC)c(OC)c3)c2=O)cc1", "protection from apoptosis": "inconclusive: 32%"},
      {"smiles": "CC(C)c1ccccc1-n1c(SCC(=O)N2CCc3ccccc3C2)nc2ccccc2c1=O", "protection from apoptosis": "active: 121%"},
      {"smiles": "Cc1nn(C)c(C(=O)NCc2ccc(Cl)cc2)c1Cl", "protection from apoptosis": "inconclusive: 70.8%"},
      {"smiles": "CCCCC(=O)N1C/C=C\\C(c2ccc(OC)cc2)N(Cc2ccc(F)cc2)C(=O)[C@H]1Cc1ccccc1", "note": "(stereo not given in full)", "protection from apoptosis": "active: 98.9%"},
      {"smiles": "Cc1cccc(Nc2nc(N)c([N+](=O)[O-])c(N3CC(C)CC(C)C3)n2)c1", "note": "(stereo not given)", "protection from apoptosis": "inconclusive: 72.6%"},
      {"smiles": "O=C(NC(=O)N1CCN(c2cccc(Cl)c2)CC1)c1ccc(Cl)cc1", "protection from apoptosis": "inactive: -3.05%"},
      {"smiles": "Cc1ccc(C)n1-c1ccc(C(=O)Nc2ccccc2)cc1", "protection from apoptosis": "inconclusive: 54.7%"},
      {"smiles": "CCCCOC(=O)c1ccc(NC(c2ccc(C)cc2)P(=O)(OC)OC)cc1", "note": "(stereo not given)", "protection from apoptosis": "inconclusive: 47.8%"},
      {"smiles": "c1ccc(-c2nnc(CSc3ccc4c(c3)OCCO4)o2)cc1", "protection from apoptosis": "inconclusive: 46%"},
      {"smiles": "COc1ccc(C(=O)C/C(=C\\C(=O)c2ccc(C)cc2)c2ccccc2)cc1", "protection from apoptosis": "inconclusive: 66.5%"},
      {"smiles": "CC(C)C[C@H](NC(=O)c1nc[nH]c1C(=O)N[C@@H](CC(C)C)C(=O)OC(C)(C)C)C(=O)OCc1ccccc1", "protection from apoptosis": "inconclusive: 73.5%"},
      {"smiles": "CC(=O)c1c(C)[nH]c(C(=O)CN2CCN(S(=O)(=O)c3ccccc3)CC2)c1C", "protection from apoptosis": "inconclusive: 50.8%"},
      {"smiles": "CC(C)NC(=S)N/N=C/c1cc(Br)ccc1O", "protection from apoptosis": "inconclusive: 73.6%"},
      {"smiles": "COc1ccc2c(c1OC)C(=O)OC2Nc1nc(-c2ccccc2)cs1", "note": "(stereo not given)", "protection from apoptosis": "inconclusive: 73.5%"},
      {"smiles": "COc1ccc(CCNc2ccc(C(CC(N)=O)NC(=O)c3ccc(Br)cc3)cc2[N+](=O)[O-])cc1", "note": "(stereo not given)", "protection from apoptosis": "inconclusive: 64%"},
      {"smiles": "O=C(Oc1c(CN2CCOCC2)cc(Cl)c2cccnc12)c1ccccc1", "protection from apoptosis": "inconclusive: 74.1%"},
      {"smiles": "COc1cc(SC#N)ccc1N=Cc1c(C)[nH]n(-c2ccc(C)cc2)c1=O", "protection from apoptosis": "inconclusive: 74.1%"},
      {"smiles": "Cc1ccc(NC(=S)N/N=C/c2ccc([N+](=O)[O-])s2)cc1", "protection from apoptosis": "inconclusive: 74.4%"},
      {"smiles": "Cc1cccc(NC(=O)c2nc(S(=O)(=O)Cc3ccccc3)ncc2Cl)c1", "protection from apoptosis": "inconclusive: 74%"},
      {"smiles": "c1cnc(N2CCN(c3cnccn3)CC2)nc1", "protection from apoptosis": "inactive: 0.193%"},
      {"smiles": "COc1ccc(C2=Nn3c(nnc3-c3ccccc3Cl)SC2)cc1OC1CCCC1", "protection from apoptosis": "inconclusive: 54.9%"},
      {"smiles": "NC(=S)N/N=C/c1ccccc1O", "protection from apoptosis": "active: 91.5%"},
      {"smiles": "CCn1c(C(=O)N2CCCC(C(=O)NCCc3ccc(C)cc3)C2)cc2sccc21", "note": "(stereo not given)", "protection from apoptosis": "inactive: -1.24%"},
      {"smiles": "O=C1N[C@@H](Cc2cn(S(=O)(=O)c3ccc(F)cc3)c3ccccc23)C(=O)N[C@H]1Cc1ccccc1", "protection from apoptosis": "inactive: 3.84%"},
      {"smiles": "OC(COc1ccc2c(c1)OCO2)CN1CCCC1", "note": "(stereo not given)", "protection from apoptosis": "inactive: -1.49%"},
      {"smiles": "C[C@H](CO)N1C[C@H](C)[C@@H](CN(C)C(=O)NC2CCCCC2)Oc2c(NC(=O)Nc3ccc(C(F)(F)F)cc3)cccc2C1=O", "protection from apoptosis": "inconclusive: 71.3%"},
      {"smiles": "Cc1ccc2c(C)ccc(O)c2n1", "protection from apoptosis": "inconclusive: 41.1%"},
      {"smiles": "CCN(CC)c1ccc(-c2sc(Nc3ccccc3)n[n+]2-c2ccc(F)cc2)cc1", "protection from apoptosis": "inactive: 32.4%"},
      {"smiles": "O=c1[nH]n2c(=O)c3c([nH]c2c1N=Nc1cccc(Cl)c1)CCC3", "protection from apoptosis": "inactive: 0.332%"},
      {"smiles": "COc1cc(NC(=O)C/C(C)=N/NC(=O)Cc2ccccc2)c(OC)cc1Cl", "protection from apoptosis": "inconclusive: 56%"},
      {"smiles": "COc1ccc(NC(=O)N(C)C[C@H]2Oc3c(NS(=O)(=O)c4ccc(F)cc4)cccc3C(=O)N([C@H](C)CO)C[C@@H]2C)cc1", "protection from apoptosis": "inconclusive: 30.6%"},
      {"smiles": "C=CC[C@@H](CC(=O)N(CCO)Cc1ccccc1)C(=O)N[C@H](COC(=O)[C@@H](CC=C)CC(=O)OC(C)(C)C)c1ccccc1", "protection from apoptosis": "inconclusive: 44.2%"},
      {"smiles": "O=C(Nc1ccc([N+](=O)[O-])cc1)c1cn(-c2ccccc2)nc1-c1cc2ccccc2o1", "protection from apoptosis": "inconclusive: 73.7%"},
      {"smiles": "Cc1ccc(OCc2cc(C(=O)N(C)Cc3cc(C4CC4)n[nH]3)no2)cc1C", "protection from apoptosis": "inconclusive: 53%"}
    ]}
  ]
}
